Source: US9957428B2 (priority 2013, dated 2018)

Legend:
[1] = w/w; for Solubility of Z-Dol 2500 in deposition solvent: weight of lubricant to combined weight of lubricant and solvent; for Solubility of Moresco D40H in deposition solvent / Solubility of Z-Tetraol S Grade in deposition solvent: range = highest soluble value to lowest insoluble value
Procedure: Compounds from Preparatory Examples 1, 2 and 5 were evaluated for utility as deposition solvents based upon solubility for three industrial lubricants (Z-Dol 2500 and Fomblin Z-Tetraol S Grade available from Solvay SA, Brussels, Belgium and Moresco D40H available from Moresco, Kobe-City, Hyogo, Japan). A disposable glass vial was placed on a four-place balance and the mass (My) recorded. The balance with the glass vial was tared and deposition solvent was added (varying from 1 g to 5 g) and the mass (MS) was recorded. The balance with the deposition solvent in the glass vial was tared again. The lubricant was added in a dropwise fashion using a disposable plastic pipette and the mass (ML) recorded. The glass vial was then mixed by hand for 10 seconds to 30 seconds and the solution clarity was visually observed and recorded. If the solution was hazy, the lubricant was considered to have exceeded the solubility limit of the deposition solvent. If the solution was clear, additional drops of lubricant were added to the glass vial, the mass (ML) was recorded, the glass vial was shaken, and the solution clarity was observed. This process was continued until a hazy solution was observed or more than 10% w/w (weight of lubricant to combined weight of lubricant and deposition solvent) was reached. After a hazy solution or more than 10% w/w was reached, the glass vial with the solution was removed from the balance. The balance was tared and the final mass (Mp) of the glass vial with deposition solvent and lubricant was measured and recorded. To account for the evaporative losses of the deposition solvent during the experiment, the mass of the vial and the mass of the lubricant added were subtracted from the total mass of the vial with the deposition solvent and lubricant to determine the final mass of deposition solvent (Ms*) in the vial (i.e., Ms*=MF−My−ML). Solubility of the lubricant in deposition solvents was calculated as (ML+MS*) and reported in % w/w (weight/weight).
The lubricants described above were mixed with deposition solvents and the solubility results are shown in Table 8 compared to Novec 7100 fluid available from 3M Company, St. Paul, Minn., USA. If the endpoint was not clearly observed, the solubility experiment was repeated. Where a range is reported for solubility, the lower number is the highest soluble value and the higher number is the lowest insoluble value.

[2] = Procedure: Vapor Pressure was measured using the stirred-flask ebuilliometer method described in ASTM E-1719-97 “Vapor Pressure Measurement by Ebuilliometry”. This method is also referred to as “Dynamic Reflux”. The boiling point was measured using ASTM D1120-94 “Standard Test Method for Boiling Point of Engine Coolants”.
The method uses a 50-mL glass round-bottom flask. Vacuum was measured and controlled using a JKEM vacuum controller. The pressure transducer was calibrated on the day of measurement by comparison with full vacuum and with an electronic barometer located in the same laboratory. The procedure was to begin slowly heating the material, then applying vacuum until boiling occurred and a steady drop wise reflux rate was established. Distillate temperature and pressure reading were recorded, then the vacuum controller was set for a higher absolute pressure and the material was heated further until a new reflux point was established. The pressure level was raised in increments until the vapor pressure curve was obtained up to the atmospheric boiling point.

| SMILES | Solubility of Z-Dol 2500 in deposition solvent [1] | Solubility of Moresco D40H in deposition solvent [1] | Solubility of Z-Tetraol S Grade in deposition solvent [1] | Boiling Point at 760 mm Hg [2] | Vapor Pressure at 131° F. (55°) [2] |
| --- | --- | --- | --- | --- | --- |
| F/C(=C(/F)C(F)(F)F)N1C(F)(F)C(F)(F)OC(F)(F)C1(F)F [Preparatory Example 2, 2,2,3,3,5,5,6,6-octafluoro-4-(1,2,3,3,3-pentafluoroprop-1-enyl)morpholine] | >10% | 0.67-0.98% | 0.67-0.98% | – | – |
| FC(=C(F)C(F)(F)F)N(C(F)(F)F)C(F)(F)C(F)(F)F [Preparatory Example 5, 1,2,3,3,3-pentafluoro-N-(1,1,2,2,2-pentafluoroethyl)-N-(trifluoromethyl)prop-1-en-1-amine] | >10% | ~0.25% | <<1% | – | – |
| FC(=C(F)C(F)(F)F)N(C(F)(F)F)C(F)(F)F [Preparatory Example 1, 1,2,3,3,3-pentafluoro-N,N-bis(trifluoromethyl)prop-1-en-1-amine] | >10% | 0.25-0.33% | <<1% | 85.1 °C | 266.6 mm Hg |
